Toxic doses and inconclusive results are not listed. Not every entry of the source has a single result; some have several. The list is limited to them. There may be further records. The values listed for one entry are repeats in other runs, samples, wells, individuals or studies.
System: L1210 leukemia ip in BDF1 mice, survival T/C
Test: NCI In Vivo Anticancer Drug Screen. Data for tumor model L1210 Leukemia (intraperitoneal) in B6D2F1 (BDF1) mice
Details: endpoint: mean survival time, higher = longer survival
[1] = dose: 400.0 mg/kg/injection, schedule: Q01DX009 (ip), vehicle: saline with Tween-80
[2] = dose: 400.0 mg/kg/injection, schedule: Q04DX002 (ip), vehicle: saline

SMILES: CN(C)N=Nc1cc(Cl)cc(C(N)=O)c1Cl
- T/C [1]: 118 % of control and 170 % of control

SMILES: O=c1[nH]nc(SCc2ccccc2)c(=S)[nH]1
- T/C (dose: 400.0 mg/kg/injection, schedule: Q01DX001 (ip), vehicle: other): 97 % of control and 166 % of control

SMILES: O=C(NO)c1ccc([N+](=O)[O-])cc1
- T/C (dose: 400.0 mg/kg/injection, schedule: Q01DX015 (ip), vehicle: water): 119 % of control, 152 % of control, 159 % of control

SMILES: CCCC(=O)Nc1ccc(O)cc1
- T/C [1]: 123 % of control and 160 % of control

SMILES: CC1(C#N)CC(c2ccccc2)Nc2ccccc2N1 (stereo unspecified)
- T/C (dose: 400.0 mg/kg/injection, schedule: Q04DX003 (ip), vehicle: Klucel (hydroxypropylcellulose) (HPC)): 92 % of control, 96 % of control, 164 % of control

SMILES: CCCCC(=O)NN
- T/C (dose: 100.0 mg/kg/injection, schedule: Q01DX009 (ip), vehicle: saline with Tween-80): 90 % of control and 155 % of control

SMILES: C=CC(=O)OCC(C)(C)C
- T/C [2]: 100 % of control and 155 % of control

SMILES: Nc1c(F)c(F)c(C(=O)O)c(F)c1F
- T/C [2]: 91 % of control and 156 % of control

SMILES: CN(C)CC(=O)c1ccc(O)c(O)c1
- T/C (dose: 300.0 mg/kg/injection, schedule: Q01DX Z (ip), vehicle: saline): 113 % of control and 155 % of control

SMILES: CCNc1nncs1
- T/C (dose: 150.75 mg/kg/injection, schedule: Q02DX010 (ip), vehicle: carboxymethylcellulose (CMC)): 105 % of control and 154 % of control

SMILES: Nc1nc(=O)n(C2CC(O)C(CO)O2)cc1F (stereo unspecified)
- T/C (dose: 45.0 mg/kg/injection, schedule: Q01DX Z (ip), vehicle: saline): 115 % of control and 158 % of control

Source: PubChem BioAssay AID248 (DTP/NCI, 2004)
